The source gives no read counts; variants with many changes may rest on few reads.

The chains are these.
B1: CPEB3 Ribozyme (parent)
chain: UAACAGGGGGCCACAGCAGAAGCGUUCACGUCGCAGCCCCUGUCAGAUUCUGGUGAAUCUGCGAAUUCUGCUGUAUAUCUC

In this data set the parent is B1. Briefly: self-cleavage, relative activity (ratio to wild type); higher = more cleavage; in vitro, sequencing. The procedure, abridged:
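CPEB3 self-cleaving ribozyme mutant libraries were made by rounds of error-prone PCR, barcoded, and transcribed in vitro with T7 RNA polymerase for 5 hours at 37°C. Cleavage occurred during transcription and a 15 min DNase I step before EDTA stop. RNAs were reverse transcribed with template switching and Illumina-sequenced, with DNA sequencing mapping barcodes to variants. Relative activity is the variant's cleaved/total read fraction divided by wild type's (minimum 5 reads), averaged across three batches.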
As for UGACAGGGGGACACAGCAGAAGCGUUCACGUCGCAGCCCCGGUCAGAUUCUCGUGAAUCUGCGAACCCUGCUGUAUAUCUC [A2G C11A U41G G52C U66C U67C], the self-cleavage turned out to be 0.06.

As to UGACAGGGGGCCACAGCAGAAGCGUUAACGUCGCAGCCCCUGACAGACUCUGGUGAAUCUGCGUAUUCUGCUGUAUAUCUC [A2G C27A U43A U48C A64U], the self-cleavage was 0.16.

With UGACAGGGGGCCACAGCAGAAGCGUUCACGUCGCAGCCCCUGUCAGAUUCUGGUGAGUCUGCGAAUUCUUCCGUAUAUCUC [A2G A57G G70U U72C], the self-cleavage was determined as 0.1.

As to UGACAGGGGGCCACAGCAGAAGUGUUCACGUCGCAGCCCCUGUCAGAUUCUGGUGAAUCAGCGAAUUCUGCUGUAUAUCUC [A2G C23U U60A], the self-cleavage came out at 0.16.

With UGACAGGGGGCCACAGUAGGAGCGUUCACGUCGCAGCCCCCGUCAGAUUCUGGUGAAUCUGCGAAUUCUGCUGUGUAUCUC [A2G C17U A20G U41C A75G], the self-cleavage worked out at 0.25.

As to UGACAGGGGGCGGCAGCAGGAGCGUUCACGUCGCAGCCCCUGUCAGAUUCUGGUGAAUCGGCGAAUUCUGCUGUAUAUCUC [A2G C12G A13G A20G U60G], the self-cleavage came out at 0.09.

For UGACAGGGGGCCACAGCAGAAGUGUUCACGUCGCAGCCCCUGUCAGAUUCUGGUGGAUCUGCGAAUUCUGCUGUAAAUCUC [A2G C23U A56G U76A], the self-cleavage stood at 0.4.

Turning to UGACAGGGGGCCACAGCAGAAGCGUUCACGUUGCAGCCCCUGUCAGAUUCUGGUGAAUCUGCGAAUUCAGCUGUAUAUCUC [A2G C32U U69A], the self-cleavage stood at 0.06.

Regarding UGACAGGGGGCCACAGCAGAAGCGUUCACGUUGCAGCCCCGGUCAGAUUCUGGUGAAUCUGCGAAUUCUGCUGUAUAUCCC [A2G C32U U41G U80C], the self-cleavage amounted to 0.08.

Consider UGACAGGGGGCCACAGCAGAAGUGUCCACGUCGCAUCCCCUGUCAGAUUCUGGUGAAUCUGCGAAUUCUGCUGUAUAUCUC [A2G C23U U26C G36U], for which the self-cleavage was 0.08.

For UGACAGGGGGUCACAGCUGAAGAGUUAACGUCGCAGCCCCUGUCAGAUUCUGGUGAAUCUGCGAAUUCUGCCGUAUAUCUC [A2G C11U A18U C23A C27A U72C], the self-cleavage is 0.21.

Regarding UGACAGGGGGCCACAGCAGAAGCGUUCAGGUCGCAGCCCCUGUCAGGUUCUGGUGAAUCUGCGAAUUCUGCAGUAUAUCUC [A2G C29G A47G U72A], the self-cleavage came to 0.18.

With UGACAGGGGGCCACAGCAGAAGCGUUCACGUCGCAGCCCCUGUCAGAUUCUGGUGAAUCUGCGAGCCCUGCUGUAUAACUC [A2G A65G U66C U67C U78A], the self-cleavage came to 0.21.

As for UGACAGGGGGCCACAGCAGAAGGGUUCACGUCGCAGCCCCUGUCAGAUUCUGGUGAAUCUGCGAACUCUGCCGUAUACCUU [A2G C23G U66C U72C U78C C81U], the self-cleavage amounted to 0.03.

UGACAGGGGGUCACAGCAGAAGCGUUCACGUCGCAGCCCCUGUCAGAUUCUGGUGAGUCUGCGAAUUCUGCUGUAUAUCUC [A2G C11U A57G]: the self-cleavage is 0.29.

For the variant UGACAGGGGGCCACAGCAGAAGCGUUCACGUCGCAGCCCCUGUCAGAUUCUGGUGAAUCUGCGUAUUCUGCUGUAUAUCUA [A2G A64U C81A], the self-cleavage amounted to 0.28.

With UGACAGGGGGCCACAGCAGAAGCGUUCACGUCGCAGCCCCUGUCAGAUUCUGGUGAAUCUGCGAGUUCAGCUGUAUAUCUC [A2G A65G U69A], the self-cleavage was determined as 0.06.

As for UGACAGGGGGUCACAGCAGGAGCGUUCGCGUCGCAGCCCCUGUCAGAUUCUGGUGAGUCUGCGAAUUCUGCCGUAAAUCUC [A2G C11U A20G A28G A57G U72C U76A], the self-cleavage is 0.07.

For UGACAGGGGGCCACAGCAGAAGCGUUCACGUCGCAGCCCCUGUCAGAUUCUGGUGAAUCUGCGGAUUCUGCUUUAUAUCUC [A2G A64G G73U], the self-cleavage came to 0.95.

Take UGACAGGGGGUCACGGCAGAAGCGUUCACGUCGCAGCCCCUGUCAGAUUCUGGUGAAUCUGCGAAUUCUGCUGUAUAUCUC [A2G C11U A15G]: the self-cleavage stood at 0.1.

Take UGACAGGGGGCCACAGCAGAAGCGUUCAGGUCGCUGCCCCUGUCGGAUUCUGGUGAAUCUGCGAAUUCUGCUGUAUAUCCC [A2G C29G A35U A45G U80C]: the self-cleavage is 0.38.

In the case of UGACAGGGGGCCACAGCAGAAGCGUUCACGUCGCAGCCCCUGUCAGAUUCUGGUGAAUCUGCGUAACCUGCUGUAUAUCCC [A2G A64U U66A U67C U80C], the self-cleavage worked out at 0.28.

As to UGACAGGGGGCCAAAGCAGAAGCGUUCACGUCGCAGCCCCUGUCAGAUUCUGGUGAACCUGCGAAUUCUGCUGUAUAUCUC [A2G C14A U58C], the self-cleavage was 0.3.

UGACAGGGGGCUACAGCAGAAGCGUUCACGUCGCAGCCCCUGUCGGAUUCUGGUGAGUCUGCGAAUUCUGCUGUAUAUCUC [A2G C12U A45G A57G]: the self-cleavage came to 0.43.

Take UGACAGGGGGUCACAGCAGAAGCGCUCACGUCGCUGCCCCUGUCAGGUUCUGGUGGAUCUGCGAAUUCUGCUGUAUAUCUC [A2G C11U U25C A35U A47G A56G]: the self-cleavage turned out to be 0.18.

UGACAGGGGGCCACAGCAGAAGCGUUCACGUCGCAGCCCCUGUCAGAUUCUGGUGAGCCUGCGAAUUCUGCUGUAUAUCUA [A2G A57G U58C C81A]: the self-cleavage is 0.06.

In the case of UGACAGGGGGACUCAGCAGAAGCGUUCACGUCGCAGCCCCAGUCAGAUUCUGGCGAAUCUGCGAAUUCUACCGUAUAUCUC [A2G C11A A13U U41A U54C G70A U72C], the self-cleavage stood at 0.04.

With UGACAGGGGGCCACAGCAGAAGCGUUCAAGUCGCAGCCCCUGCUAGAUUCUGGUGAAUCUGCGAAUUAUGCAGUAUAUCUC [A2G C29A U43C C44U C68A U72A], the self-cleavage amounted to 0.2.

On to UGAUAGGGGGCCACAGCAGAAGCGUUCACGUCGCAGCCCCUGUCAGACUCUGGUGUAUCUGCGAAUUCUGCUGUAUACCUC [A2G C4U U48C A56U U78C], for which the self-cleavage was determined as 0.55.

As for UGACAGGGGGCCACAGCAGAAGCGUUCACGUCGCAGCCCCUGUCAGAUUCUGGUGUAUCUGCGGAUUCUGCCGUAUAUCUC [A2G A56U A64G U72C], the self-cleavage was 0.1.

In the case of UGACAGGGGGCUACAGCAGAAGCGCUCACGUCGUAGCCCCUGUCAGAUUCUGGUGAAUCUGCGAAUUCUGCUGUAUAUCUC [A2G C12U U25C C34U], the self-cleavage came out at 0.14.

Take UGACAGGGGGCCACAGCAGAAGCGUUCAAGUCGCAGCCCCAGUCAGAUUCUGGUGAAUCUGCGAAUUCUGCUGUAUAUCUC [A2G C29A U41A]: the self-cleavage came to 0.21.

UGACAGGGGGCCACAGCAGAAGCGUUCACGUCGUAGCCCCUGUCAGAUUCUGGUGAAUCUGCGAACUCUGCUGCGUAUCUC [A2G C34U U66C U74C A75G]: the self-cleavage was 0.04.

For UGACAGGGGGCAACAACAGGAGCGUUCUCGUCGCAGCCCCUGUCAGAUUCUGGUGAAUCUGCGAAUUCUGCAGUAUAUCAC [A2G C12A G16A A20G A28U U72A U80A], the self-cleavage came to 0.17.
